Molecules are shown by their SMILES. About 14,000 (4.5%) of roughly 310,000 compounds showed an effect of 50% or more. Effects have a minus sign here. This is one part of the list.

The record followed here is article PMC4336329 (PLoS ONE, 2015).
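Also: peak tail current of the secondary pulse compared with the same well before compound.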

For this assay, the target named is human ether-à-go-go-related gene (hERG) potassium channel (human, UniProt Q12809). Briefly: primary screen, population patch clamp on CHO cells stably expressing hERG.
Chain of human ether-à-go-go-related gene (hERG) potassium channel (Q12809 whole entry, looked up): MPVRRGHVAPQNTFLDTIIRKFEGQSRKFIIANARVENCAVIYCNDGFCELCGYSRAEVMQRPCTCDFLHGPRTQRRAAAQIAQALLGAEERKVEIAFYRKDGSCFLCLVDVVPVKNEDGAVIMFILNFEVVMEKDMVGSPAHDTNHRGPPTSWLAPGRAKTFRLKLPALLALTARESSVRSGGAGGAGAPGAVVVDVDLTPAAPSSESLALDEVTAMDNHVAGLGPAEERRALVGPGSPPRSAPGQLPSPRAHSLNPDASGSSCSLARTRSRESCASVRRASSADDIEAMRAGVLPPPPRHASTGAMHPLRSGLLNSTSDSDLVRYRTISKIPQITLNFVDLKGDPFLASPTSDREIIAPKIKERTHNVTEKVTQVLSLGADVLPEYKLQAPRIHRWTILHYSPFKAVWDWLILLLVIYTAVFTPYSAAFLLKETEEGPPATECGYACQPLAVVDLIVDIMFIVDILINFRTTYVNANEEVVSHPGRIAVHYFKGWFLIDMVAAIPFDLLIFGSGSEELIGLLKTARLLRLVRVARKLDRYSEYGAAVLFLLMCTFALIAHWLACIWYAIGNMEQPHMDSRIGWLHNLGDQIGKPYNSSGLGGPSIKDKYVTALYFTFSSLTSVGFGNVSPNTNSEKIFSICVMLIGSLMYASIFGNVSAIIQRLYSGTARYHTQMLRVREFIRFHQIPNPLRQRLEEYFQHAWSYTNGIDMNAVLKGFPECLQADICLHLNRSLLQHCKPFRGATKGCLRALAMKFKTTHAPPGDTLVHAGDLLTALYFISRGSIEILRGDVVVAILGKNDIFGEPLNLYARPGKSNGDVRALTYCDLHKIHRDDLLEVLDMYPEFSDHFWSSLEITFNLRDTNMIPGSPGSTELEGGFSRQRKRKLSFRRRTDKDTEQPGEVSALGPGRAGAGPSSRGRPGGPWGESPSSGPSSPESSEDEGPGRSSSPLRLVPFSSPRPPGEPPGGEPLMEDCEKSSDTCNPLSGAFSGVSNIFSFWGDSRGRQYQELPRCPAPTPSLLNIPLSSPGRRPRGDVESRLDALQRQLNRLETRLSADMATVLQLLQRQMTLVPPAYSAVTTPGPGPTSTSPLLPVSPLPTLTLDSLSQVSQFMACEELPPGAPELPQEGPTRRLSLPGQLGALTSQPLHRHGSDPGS
As to `COC(=O)c1scc(C)c1NC(=O)CC1NCCNC1=O` (centres unmarked), the “hERG current change (%, negative = inhibition) at 10uM” value was 11.9%.
In the case of `CCCN(CCC)C(=O)c1cc(-c2ccc3c(c2)OCO3)nc2ccccc12`, the “hERG current change (%, negative = inhibition) at 10uM” value is reported as -44.1%.
As to `COc1ccc(C(=O)N2CCN(c3nc4ccccc4o3)CC2)cc1OC`, the “hERG current change (%, negative = inhibition) at 10uM” value was -40.7%.
The figure for `COc1ccc(Br)cc1C1CC(=O)N2CN(C)CSC2=C1C#N` (centres unmarked) is 12.2%; for `O=C1CCCC(=O)C1Sc1ccc(Cl)cc1` it is 11.2%.
Consider `Cc1c(NC(=O)C2CC(c3c(F)cccc3Cl)=NO2)c(=O)n(-c2ccccc2)n1C` (centres unmarked), for which the “hERG current change (%, negative = inhibition) at 10uM” value is given as 14.7%.
The figure for `NC(=O)c1ccccc1NC(=O)Cc1cccs1` is -0.237%; for `Cc1cc(NC(=O)c2ccc(C)s2)n(-c2nc3ccccc3[nH]2)n1` it is 10.3%; for `O=C(c1cc2ccccc2cc1O)N1CCN(c2ccccn2)CC1` it is -4.26%.
The result for `Cc1cccc(C(=O)N(Cc2ccco2)c2c(N)n(Cc3ccccc3)c(=O)[nH]c2=O)c1` reads -1.64%; that for `Cc1cc(OCC(=O)NNC(=O)c2ccncc2)ccc1C(C)C`, -12.2%; that for `Cc1cc(C)n(-c2c(C)[nH]c3ccccc23)n1`, 7.34%.
The figure for `COC(=O)CCC(=O)OC1(C)C(=O)C2=CN(CCc3c[nH]c4ccccc34)C(c3ccc(OC)cc3)=CC2=C(Br)C1=O` (centres unmarked) is -1.22%; for `CC[C@H](C)Cc1cn([C@@H](CCCN=C(NC(=O)OC(C)(C)C)NC(=O)OC(C)(C)C)C(=O)NCCCCCCCCCCC(=O)N2CCN(C(=O)OC(C)(C)C)CC2)nn1` it is 4.2%; for `O=C(Nc1nc(-c2ccccn2)cs1)C1COc2ccccc2O1` (centres unmarked) it is -22.4%.
Consider `COc1ccc(CNS(=O)(=O)c2ccc(S(=O)(=O)N3CCCCC3)cc2)cc1`, for which the “hERG current change (%, negative = inhibition) at 10uM” value was 7.34%.
The result for `COc1ccc(OC)c(/C=N/NC2=NS(=O)(=O)c3ccccc32)c1` reads 1.79%; that for `OCC[C@@H]1C[C@@H](O)[C@H](O)[C@]2(CCc3ccccc3O2)O1`, 8.06%; that for `NC(=O)C1(N2CCCCC2)CCN(S(=O)(=O)c2cc(Cl)sc2Cl)CC1`, -28.8%.
The figure for `O=C(O)CSCC(=O)N1CCCCC1` is 26.3%; for `c1ccc(-c2nc(Sc3ncnc4c3cnn4-c3ccccc3)n[nH]2)cc1` it is 3.89%; for `COc1ccc(CNC(=O)c2cnc(C)cn2)c(OC)c1` it is -11%.
The figure for `Cc1ccc(N2C(=O)C(CN3CCOCC3)C2c2ccccc2)cc1` (centres unmarked) is -26.5%; for `CCOc1ccc(NC(=O)CN(C)Cc2cc(=O)n3c(-c4ccccc4)csc3n2)cc1OCC` it is 12.4%; for `O=C(CSc1n[nH]c(=O)n1Cc1ccccc1)Nc1ccc(F)c(F)c1F` it is 10.1%.
For the compound `Cc1cc(N2CCOCC2)ccc1/C=C1\SC(=O)N(C(C)C)C1=O`, the “hERG current change (%, negative = inhibition) at 10uM” value is listed as -6.26%.
The result for `CC1=C(C(=O)Nc2ccccc2)S(=O)(=O)CCO1` reads 12.2%.
As for `COc1ccc(NC(=O)NS(=O)(=O)c2ccc(C)cc2)cn1`, the “hERG current change (%, negative = inhibition) at 10uM” value was 11.9%.
The result for `Cc1nn(C)c(C)c1NC(=O)Nc1cccc(C(F)(F)F)c1` reads 1.34%; that for `COC(=O)CCCNc1ncccc1[N+](=O)[O-]`, 21.2%.
The figure for `COc1ccc(OC)c(NC(=O)CCCC(=O)NC2CCCCC2)c1` is 20.4%.
As for `O=C1C=C(NC2CCCCC2)CCC1`, the “hERG current change (%, negative = inhibition) at 10uM” value was found to be 8.06%.
The figure for `NC(=O)NC(Cc1ccccc1)C(=O)Nc1ccc(S(N)(=O)=O)cc1` (centres unmarked) is -2.84%.
As for `CCN(CC)C(=O)CSc1nnc(CNc2ccc(F)cc2)n1Cc1ccco1`, the “hERG current change (%, negative = inhibition) at 10uM” value is given as -38.2%.
For `Cc1c(CCO)c(=O)n(-c2ccccc2)n1S(=O)(=O)c1ccc(F)cc1`, the “hERG current change (%, negative = inhibition) at 10uM” value worked out at 1.37%.
The result for `Nc1nnc(SCC(=O)NC2CCCCCC2)s1` reads 9.18%; that for `COc1ccc(OCC(O)CN2CCN(c3ccccc3)CC2)cc1.Cl` (centres unmarked), -39.2%.
The figure for `COc1ccc(-c2cc(C)no2)cc1S(=O)(=O)N(C)c1cccc(C)c1` is -82.5%; for `Oc1cccc(Nc2nc(O)c(/C=C3\C=Nc4ccccc43)s2)c1` it is -7.99%; for `CCC(C(=O)Nc1ccc(C(C)C)cc1)c1ccccc1` (centres unmarked) it is 11.8%.
The figure for `CCCCn1c(N)c(N(CCC(C)C)C(=O)C2CCCO2)c(=O)[nH]c1=O` (centres unmarked) is 11.4%; for `O=C(O)CC1(CC(=O)N2CCC(C(=O)O)CC2)CCCC1` it is 22.4%; for `O=C(COC(=O)c1cc2ccccc2o1)c1ccccc1` it is 4.14%.
With `Fc1ccccc1C1c2[nH]c3ccccc3c2CCN1Cc1cccn1-c1ncccn1` (centres unmarked), the “hERG current change (%, negative = inhibition) at 10uM” value is on record as -50.6%.
